Among all 150,000 compounds or so, about 540 (0.36%) showed an effect of 50% or more. The list shows a part of the results.

This assay has as its system Plasmodium falciparum. The assay can be described thus: Primary screen in NF54 nanoGlo assay, in single point, at 2uM, 72h; a lower Z score goes with more inhibition. It counts as functional, Erythrocyte. The conditions noted are these: timepoint 72 hour.
For the compound `Cn1ccnc1C1CC(NC(=O)C2CC(C)(C)Oc3ccccc32)CCO1` (configuration not stated), the “% Inhibition” value is reported as -4% and the Z score turned out to be 0.68.
For `Cc1nn(CCO)c(C)c1[C@@H]1NCCc2[nH]cnc21` the same measures were -16% and 2.3.
Regarding `CCCN(CCO)[C@@H](C(=O)O)c1ccc(OC(C)C)cc1`, the “% Inhibition” value is listed as 7% and the Z score is -1.03.
For `COc1cc([C@H]2CC(=O)Nc3c2c(=O)[nH]n3C2CCCCC2)ccc1O` the same measures were 28% and -3.16.
For `CC1(C)CN(S(=O)(=O)c2cncc(C#N)c2)[C@H]2COC[C@H]21` the same measures were -7% and 0.8.
In the case of `COc1cccc(-c2n[nH]c3c2CN(c2cc(NCCO)ncn2)CC3)c1`, the “% Inhibition” value worked out at 1% and the Z score is -0.22.
The matching figures for `CC(C)(O)c1cn(C2CN(C(=O)Nc3ccccc3)C2)nn1`: -6% and 1.01.
For `O=C(N[C@@H](Cc1ccccc1)c1nnc(N2CCCCC2)o1)c1ccc(Br)o1` the same measures were 12% and -1.41.
The matching figures for `Cc1ccc2c(c1)CCCN2C(=O)[C@H]1CCc2[nH]c(C)nc2C1`: -2% and 0.29.
Regarding `CCc1oc2c(NC(=O)NCCN3CCC[C@H](C(N)=O)C3)cccc2c1C`, the “% Inhibition” value is on record as -1% and the Z score came out at 0.28.
The matching figures for `N#Cc1ccc(NC(=O)C[C@@H]2C=CCC2)nc1`: -9% and 1.46.
As for `CC1CCCN(S(=O)(=O)NC(C)c2ccccn2)C1` (configuration not stated), the “% Inhibition” value is reported as -9% and the Z score amounted to 0.95.
Take `O=C(c1cc(C2CC2)[nH]c(=O)c1)N1CCc2[nH]c3ccc(F)cc3c2C1`: the “% Inhibition” value is -12% and the Z score is listed as 1.97.
For `COCCCS(=O)(=O)N(C)Cc1cccc(Cl)c1Cl` the same measures were 10% and -1.15.
For `CC(C)Oc1ccc(CN[C@H]2CCCc3nc(N(C)C)ncc32)cc1` the same measures were 5% and -0.73.
The matching figures for `COCCN(C)CC(=O)NCc1c(C)nn(C(C)C)c1C`: -8% and 1.56.
Turning to `O=C(NCCc1csc(-c2ccccc2)n1)c1ccc(-n2ccnc2)nn1`, the “% Inhibition” value is recorded as -12% and the Z score is on record as 2.35.
For `CCn1c(CNC(C)C2CCCO2)nc2c(F)cccc21` (configuration not stated) the same measures were -2% and 0.45.
For `COc1ccc(-c2ccc3c(c2)C(=O)N2C[C@@H](NS(=O)(=O)c4ccc(F)cc4)C[C@H]2C(=O)N3)cc1` the same measures were 30% and -3.34.
For `CCN(CC)C(=O)[C@@H](C)[C@@H]1CC[C@@]2(C)CC[C@H](NC(=O)c3cccc(F)c3)[C@@H](C)[C@@H]2[C@H]1O` the same measures were -12% and 1.6.
`Cc1cc(NC(=O)COc2ccccc2Br)nnc1C`: the “% Inhibition” value was -10% and the Z score turned out to be 1.
The matching figures for `CCC(CC)C(=O)N1C[C@@H]2Oc3ncccc3C(=O)N(C)[C@@H]2C1`: -5% and 0.7.
For `Cc1ccsc1CN(CCO)Cc1cccs1` the same measures were -3% and 0.43.
Regarding `Cc1ccc(O)c(C(=O)NC2CCN(c3cnccn3)CC2)c1`, the “% Inhibition” value was determined as 2% and the Z score is -0.43.
The matching figures for `Cc1cnccc1CNC(=O)N1CCCC1CC(O)c1ccco1` (configuration not stated): -1% and 0.07.
The matching figures for `Cc1ccc(NC(=O)c2cnn(-c3ccncc3)c2C)c(Cl)c1`: -17% and 1.7.
The matching figures for `CC(=O)Nc1ccc(Cl)c(Cl)c1C`: -5% and 0.77.
`N#CCCN(CC1CC1)S(=O)(=O)Cc1ccc(Cl)cc1C#N`: the “% Inhibition” value is -12% and the Z score came out at 1.37.
For `CCCCc1nc(-c2nccn2CCS(=O)(=O)N(C)C)c[nH]1` the same measures were 32% and -2.82.
The matching figures for `CC1CC(NCC(=O)NCC2CC2)CN(C(=O)OC(C)(C)C)C1` (configuration not stated): 30% and -3.77.
Consider `Cc1ccc(F)cc1S(=O)(=O)N1CC[C@H](CN(C)C)[C@@H](O)C1`, for which the “% Inhibition” value is on record as -1% and the Z score is on record as 0.1.
For `O=C1C2CN(Cc3ccccc3)CC2C(=O)N1CCC1CCCO1` (configuration not stated) the same measures were 9% and -1.79.
For `O=C1C2ON(c3ccccc3)C(c3ccncc3)C2C(=O)N1c1ccc2ccccc2c1` (configuration not stated) the same measures were 38% and -4.34.
On to `CCC[C@H]1COCCN1Cc1cccc(C(=O)Nc2ccc(C)nn2)c1`, for which the “% Inhibition” value is on record as -1% and the Z score stood at 0.22.
With `CC(C)C[C@H]1COCCN1c1ncc(C#N)cc1Cl`, the “% Inhibition” value is recorded as -8% and the Z score worked out at 1.23.
The matching figures for `COc1ccc([C@H]2C3CCCCC3(O)CCN2Cc2ccc(C)cc2)c(OC)c1` (some centres not stated): -4% and 0.76.
For `NC(=O)c1cc(F)cc(Br)c1` the same measures were -3% and 0.67.
The matching figures for `CCc1nn(CC)c(=O)c2cc(S(=O)(=O)Nc3cc(OC)cc(OC)c3)cn12`: -6% and 0.81.
For `N#Cc1ccccc1S(=O)(=O)N1CCC(N2CCC(Oc3nccs3)CC2)CC1`, the “% Inhibition” value is listed as -12% and the Z score was 1.48.
For `Cc1nnc([C@@H]2CC3(CCN(CCc4ccccc4)CC3)CN2Cc2cccnc2)o1` the same measures were 8% and -1.
On to `CN(CC1CCCCC1)C(=O)c1cc(-c2ccco2)[nH]n1`, for which the “% Inhibition” value is -12% and the Z score amounted to 2.45.
The matching figures for `C=C=CCNS(=O)(=O)CCO[C@H]1CCOC1`: 13% and -1.66.
For `O=C(CN1CCCCC1=O)N[C@@H]1C[C@H]1c1c(F)cccc1Cl` the same measures were -2% and 0.23.
Consider `CCOC(=O)c1nc(COC(C)=O)cs1`, for which the “% Inhibition” value is given as -5% and the Z score was 0.61.
In the case of `CCOc1cc(NCc2nc(C)[nH]c2C)ncn1`, the “% Inhibition” value is recorded as -16% and the Z score was determined as 3.01.
The matching figures for `Cc1nnc(-c2cnn(C)c2N)n1CCc1ccccc1`: 5% and -0.68.
For `Cc1nc(N2CCCC2)nc(C)c1NC(=O)COc1ncccn1` the same measures were -5% and 0.81.
For `COc1cc2c(cc1NC(=O)NCCc1csc(N)n1)n(C)c(=O)n2C` the same measures were -14% and 2.59.
As for `c1ccc(N(c2ccccc2)c2nc(N3CCCCC3)nc(N3CCCCC3)n2)cc1`, the “% Inhibition” value was -10% and the Z score is recorded as 1.27.
For `O=C(CN1CCCOC1=O)N1CCCCCCC1` the same measures were -11% and 1.53.
For `Cc1nsc(N2CCC(O[C@H]3CCOC3)CC2)c1C#N` the same measures were -2% and 0.17.
The matching figures for `Cn1cc(NC(=O)N[C@H]2CCN(C(=O)OCc3ccccc3)C2)nn1`: 1% and -0.14.
Turning to `CC1(NCc2ccc(Oc3ccccc3)o2)CCOCC1`, the “% Inhibition” value is -1% and the Z score is 0.15.
The matching figures for `O=S(=O)(c1cccnc1)N1CC(N2CC(F)(F)C[C@H]2CO)C1`: -2% and 0.19.
With `C=CCC[C@H](O)CN1CCN(c2nc(-c3ccccc3)nc(CC)c2Cc2ccc(F)cc2)CC1`, the “% Inhibition” value is -12% and the Z score worked out at 1.92.
For `CCn1nncc1CNC1CCCCC1` the same measures were -9% and 0.89.
For `CCc1cnc(NC(=O)[C@H]2CCCO2)o1` the same measures were -2% and 0.44.
In the case of `Cc1nc(-c2nc(C3CCOCC3)nn2-c2cccc(C(=O)O)c2)cs1`, the “% Inhibition” value was -11% and the Z score worked out at 2.08.
`CC1CCCCC1NC(=O)C1c2cccn2CC(=O)N1Cc1ccccc1` (configuration not stated): the “% Inhibition” value is listed as -4% and the Z score came to 0.58.
Consider `C[C@H]1CN(C(=O)C2=NN(Cc3ccc(F)cc3)C(=O)CC2)CCO1`, for which the “% Inhibition” value is given as -8% and the Z score is recorded as 0.87.
The matching figures for `Cc1n[nH]c(=O)c(C(=O)N2CC3CCCCC3C2)c1C` (configuration not stated): 4% and -0.48.
The matching figures for `COC(=O)[C@@H]1CCCN1C1CCN(Cc2nocc2C)CC1`: 0% and -0.02.
The matching figures for `Cc1cccc(Oc2nc(N(C)Cc3ccccc3)nc3c2CN(S(=O)(=O)c2ccccc2)CC3)c1`: 1% and -0.11.
Take `CC(C)c1cccc(N(C)CCCS(C)(=O)=O)c1`: the “% Inhibition” value is -12% and the Z score was 1.37.
For `CC(C)Oc1cc(CNS(=O)(=O)c2cnc(N)nc2)ccn1` the same measures were 3% and -0.56.
Take `CNC(=O)NC[C@H]1COCCN1C(=O)c1[nH]nc(C(F)(F)F)c1C`: the “% Inhibition” value is listed as -11% and the Z score was found to be 1.2.
On to `Cn1nccc1CN1CC[C@H]1c1cccs1`, for which the “% Inhibition” value is recorded as 4% and the Z score was -0.52.
`Cc1ccc(-c2ncc(C(=O)N3CCC[C@H]3c3cc(C)on3)c(O)n2)cc1`: the “% Inhibition” value was -9% and the Z score amounted to 1.35.
For `O=C(c1coc(COc2cccc(F)c2)n1)N1C[C@H](O)[C@@H](N2CCCC2)C1` the same measures were 5% and -0.67.
The matching figures for `COCc1noc(CN2C[C@@H]3CC[C@H]2CN(Cc2ccc(F)cc2)C3)n1`: -16% and 1.47.
For `Cc1cnccc1N1CC(C)OC(C2CC2)C1` (configuration not stated) the same measures were -10% and 0.84.
On to `Cn1cnc(C(=O)N(CCCN2CCCC2=O)C2CCOCC2)c1`, for which the “% Inhibition” value is -6% and the Z score turned out to be 0.69.
For `CCS(=O)(=O)NCCNc1ncc(Br)cc1C` the same measures were -12% and 2.21.
The matching figures for `COc1cccc(Cn2c(=O)c(C(=O)NCc3ccco3)nn(-c3ccc(C)cc3)c2=O)c1`: -21% and 1.85.
For `O=C(O)CC1CN(C(=O)C2CCCc3ccccc32)CCO1` (configuration not stated) the same measures were -9% and 1.58.
Consider `C[C@H](NC(=O)NC1CCOCC1)c1ccc(S(C)(=O)=O)c(F)c1`, for which the “% Inhibition” value is listed as -6% and the Z score is reported as 1.21.
The matching figures for `CN(C)c1cc(NC(=O)NC[C@H]2CCCCN2C2CC2)ccn1`: -3% and 0.62.
For `COc1ccccc1CNc1ccc(C(=O)Oc2ccccc2Cl)cc1S(=O)(=O)Nc1cccc(C(F)(F)F)c1` the same measures were 2% and -0.41.
For `O=C(c1nn[nH]c1Nc1ccccc1F)N1CCCCCC1` the same measures were -3% and 0.34.
As for `O[C@H]1CN(c2ncnc3ccsc23)CC[C@@H]1N1CCOCC1`, the “% Inhibition” value is -11% and the Z score worked out at 2.09.
For `CC1CCCN(S(=O)(=O)N2CCCC(c3nncn3C)C2)C1` (configuration not stated) the same measures were -8% and 1.47.
The matching figures for `Cc1noc(C(F)(F)F)c1C(=O)NC1CCC(C)CC1` (configuration not stated): 4% and -0.59.
For `CCCCN1C(=O)[C@](NC(=O)CC(C)C)(C(F)(F)F)C(C(C)=O)=C1C`, the “% Inhibition” value is -4% and the Z score is given as 0.48.
For `O=C(NC[C@H](C(=O)O)C1CCCCC1)C1CC=CC1` the same measures were -1% and 0.19.
The matching figures for `CC(C)c1nc2ccccc2n1CCNC(=O)C[C@@H]1N=C(O)c2ccccc2NC1=O`: -12% and 2.22.
For `CS(=O)(=O)c1ccnc(NC(=O)N2C[C@@H](C3CC3)C[C@H]2C2CC2)c1` the same measures were -6% and 1.11.
